According to the supplement of paper PMC8728848:
The other results are listed elsewhere or left out.

What was measured:
Assay in all cases: glycan array binding signal (z-score within array); higher = stronger binding
Conditions in all cases: glycan notation: IUPAC condensed, linker removed
[1] = molecular target: Gal(a1-3)Gal(b1-4)GlcNAc(b1-2)Man
Method in brief: (§1)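 Arrays were curated from the Consortium for Functional Glycomics database, 3228 in total, and kept only where the protein sequence was available. Binding is expressed as a within-array Z-score. This score was averaged across arrays of the same protein sequence at different concentrations or buffers and across linkers, and negative values can be read as non-binding.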

[2] = molecular target: Gal(a1-3)Gal(b1-4)GlcNAc(b1-2)Man(a1-3)[Gal(a1-3)Gal(b1-4)GlcNAc(b1-2)Man(a1-6)]Man(b1-4)GlcNAc(b1-4)GlcNAc
Method in brief: as §1

[3] = molecular target: Gal(a1-3)Gal(b1-4)GlcNAc(b1-3)GalNAc
Method in brief: as §1

[4] = molecular target: Gal(a1-3)Gal(b1-4)GlcNAc(b1-6)GalNAc
Method in brief: as §1

[5] = molecular target: Gal(a1-3)Gal(b1-4)[Fuc(a1-3)]GlcNAc
Method in brief: as §1

[6] = molecular target: Gal(a1-3)Gal(b1-4)[Fuc(a1-3)]GlcNAc(b1-2)Man(a1-3)[Gal(a1-3)Gal(b1-4)[Fuc(a1-3)]GlcNAc(b1-2)Man(a1-6)]Man(b1-4)GlcNAc(b1-4)GlcNAc
Method in brief: as §1

Gal(a1-3)GalNAc = molecular target: Gal(a1-3)GalNAc
Method in brief: as §1

[7] = molecular target: Gal(a1-3)[Gal(a1-4)]Gal(b1-4)GlcNAc
Method in brief: as §1

[8] = molecular target: Gal(a1-4)Gal(b1-3)GlcNAc(b1-2)Man(a1-3)[Gal(a1-4)Gal(b1-3)GlcNAc(b1-2)Man(a1-6)]Man(b1-4)GlcNAc(b1-4)GlcNAc
Method in brief: as §1

Gal(a1-4)Gal(b1-4)Glc = molecular target: Gal(a1-4)Gal(b1-4)Glc
Method in brief: as §1

Gal(a1-4)Gal(b1-4)GlcNAc = molecular target: Gal(a1-4)Gal(b1-4)GlcNAc
Method in brief: as §1

[9] = molecular target: Gal(a1-4)Gal(b1-4)GlcNAc(b1-2)Man(a1-3)[Gal(a1-4)Gal(b1-4)GlcNAc(b1-2)Man(a1-6)]Man(b1-4)GlcNAc(b1-4)GlcNAc
Method in brief: as §1

[10] = molecular target: Gal(a1-4)Gal(b1-4)GlcNAc(b1-3)Gal(b1-4)Glc
Method in brief: as §1

Gal(a1-4)GlcNAc = molecular target: Gal(a1-4)GlcNAc
Method in brief: as §1

Gal(a1-6)Glc = molecular target: Gal(a1-6)Glc
Method in brief: as §1

Gal(b1-2)Gal = molecular target: Gal(b1-2)Gal
Method in brief: as §1

Gal(b1-3)Gal = molecular target: Gal(b1-3)Gal
Method in brief: as §1

Gal(b1-3)Gal(b1-4)GlcNAc = molecular target: Gal(b1-3)Gal(b1-4)GlcNAc
Method in brief: as §1

Gal(b1-3)GalNAc = molecular target: Gal(b1-3)GalNAc
Method in brief: as §1

[11] = molecular target: Gal(b1-3)GalNAc(a1-3)[Fuc(a1-2)]Gal(b1-4)Glc
Method in brief: as §1

[12] = molecular target: Gal(b1-3)GalNAc(a1-3)[Fuc(a1-2)]Gal(b1-4)GlcNAc
Method in brief: as §1

Gal(b1-3)GalNAc(b1-3)Gal = molecular target: Gal(b1-3)GalNAc(b1-3)Gal
Method in brief: as §1

[13] = molecular target: Gal(b1-3)GalNAc(b1-3)Gal(a1-4)Gal(b1-4)Glc
Method in brief: as §1

[14] = molecular target: Gal(b1-3)GalNAc(b1-4)Gal(b1-4)Glc
Method in brief: as §1

[15] = molecular target: Gal(b1-3)GalNAc(b1-4)[Neu5Ac(a2-3)]Gal(b1-4)Glc
Method in brief: as §1

Gal(b1-3)GlcNAc = molecular target: Gal(b1-3)GlcNAc
Method in brief: as §1

[16] = molecular target: Gal(b1-3)GlcNAc(a1-3)Gal(b1-4)GlcNAc
Method in brief: as §1

[17] = molecular target: Gal(b1-3)GlcNAc(a1-6)Gal(b1-4)GlcNAc
Method in brief: as §1

Gal(b1-3)GlcNAc(b1-2)Man = molecular target: Gal(b1-3)GlcNAc(b1-2)Man
Method in brief: as §1

[18] = molecular target: Gal(b1-3)GlcNAc(b1-2)Man(a1-3)[Gal(b1-3)GlcNAc(b1-2)Man(a1-6)]Man(b1-4)GlcNAc(b1-4)GlcNAc
Method in brief: as §1

[19] = molecular target: Gal(b1-3)GlcNAc(b1-2)Man(a1-3)[Gal(b1-3)GlcNAc(b1-2)Man(a1-6)]Man(b1-4)GlcNAc(b1-4)[Fuc(a1-6)]GlcNAc
Method in brief: as §1

[20] = molecular target: Gal(b1-3)GlcNAc(b1-2)Man(a1-3)[GlcNAc(b1-4)][Gal(b1-3)GlcNAc(b1-2)Man(a1-6)]Man(b1-4)GlcNAc(b1-4)GlcNAc
Method in brief: as §1

[21] = molecular target: Gal(b1-3)GlcNAc(b1-2)[Gal(b1-3)GlcNAc(b1-6)]Man(a1-6)[Gal(b1-3)GlcNAc(b1-2)Man(a1-3)]Man(b1-4)GlcNAc(b1-4)GlcNAc
Method in brief: as §1

[22] = molecular target: Gal(b1-3)GlcNAc(b1-3)Gal(b1-3)GlcNAc
Method in brief: as §1

[23] = molecular target: Gal(b1-3)GlcNAc(b1-3)Gal(b1-4)Glc
Method in brief: as §1

[24] = molecular target: Gal(b1-3)GlcNAc(b1-3)Gal(b1-4)GlcNAc
Method in brief: as §1

[25] = molecular target: Gal(b1-3)GlcNAc(b1-3)Gal(b1-4)GlcNAc(b1-2)Man(a1-3)[Gal(b1-3)GlcNAc(b1-3)Gal(b1-4)GlcNAc(b1-2)Man(a1-6)]Man(b1-4)GlcNAc(b1-4)GlcNAc
Method in brief: as §1

[26] = molecular target: Gal(b1-3)GlcNAc(b1-3)Gal(b1-4)GlcNAc(b1-2)[Gal(b1-3)GlcNAc(b1-3)Gal(b1-4)GlcNAc(b1-6)]Man(a1-6)[Gal(b1-3)GlcNAc(b1-3)Gal(b1-4)GlcNAc(b1-2)Man(a1-3)]Man(b1-4)GlcNAc(b1-4)[Fuc(a1-6)]GlcNAc
Method in brief: as §1

[27] = molecular target: Gal(b1-3)GlcNAc(b1-3)Gal(b1-4)GlcNAc(b1-3)Gal(b1-4)GlcNAc(b1-2)[Gal(b1-3)GlcNAc(b1-3)Gal(b1-4)GlcNAc(b1-3)Gal(b1-4)GlcNAc(b1-6)]Man(a1-6)[Gal(b1-3)GlcNAc(b1-3)Gal(b1-4)GlcNAc(b1-3)Gal(b1-4)GlcNAc(b1-2)Man(a1-3)]Man(b1-4)GlcNAc(b1-4)[Fuc(a1-6)]GlcNAc
Method in brief: as §1

[28] = molecular target: Gal(b1-3)GlcNAc(b1-3)Gal(b1-4)GlcNAc(b1-6)[Gal(b1-3)GlcNAc(b1-3)]Gal(b1-4)Glc
Method in brief: as §1

[29] = molecular target: Gal(b1-3)GlcNAc(b1-3)Gal(b1-4)[Fuc(a1-3)]GlcNAc
Method in brief: as §1

[30] = molecular target: Gal(b1-3)GlcNAc(b1-3)Gal(b1-4)[Fuc(a1-3)]GlcNAc(b1-6)[Gal(b1-3)GlcNAc(b1-3)]Gal(b1-4)Glc
Method in brief: as §1

[31] = molecular target: Gal(b1-3)GlcNAc(b1-3)GalNAc
Method in brief: as §1

[32] = molecular target: Gal(b1-3)GlcNAc(b1-6)Gal(b1-4)GlcNAc
Method in brief: as §1

[33] = molecular target: Gal(b1-3)GlcNAc(b1-6)GalNAc
Method in brief: as §1

B1: Arath Fbox LD (Arabidopsis thaliana) (protein)
chain: EFSVWLEKASGKRCLMLSAMNLSIIWGDNPQYWQWIPIPESRFEKVAKLRDVCWFEIRGRTNTRVLSPRTRYSAYIVFKGVDKCYGFQNVAIEAAVGVVGQEPSRRLICFSEAIRRGRRNVVKPKQREDGWMEIELGEFFNDGGIMDNDEIEMSALETKQLNRKCGLIIQGIEIRPAKILAAASFLEQKLISEEDLNSAVDHHHHHH
glycan array binding signal (z-score) [1]: -0.233
glycan array binding signal (z-score) [2]: 0.168
glycan array binding signal (z-score) [3]: -0.448
glycan array binding signal (z-score) [4]: -0.577
glycan array binding signal (z-score) [5]: 0.109
glycan array binding signal (z-score) [6]: 0.64
glycan array binding signal (z-score) (Gal(a1-3)GalNAc): -0.496
glycan array binding signal (z-score) [7]: 1.55
glycan array binding signal (z-score) [8]: -0.133
glycan array binding signal (z-score) (Gal(a1-4)Gal(b1-4)Glc): -0.229
glycan array binding signal (z-score) (Gal(a1-4)Gal(b1-4)GlcNAc): -0.551
glycan array binding signal (z-score) [9]: -0.219
glycan array binding signal (z-score) [10]: -0.611
glycan array binding signal (z-score) (Gal(a1-4)GlcNAc): -0.538
glycan array binding signal (z-score) (Gal(a1-6)Glc): -0.389
glycan array binding signal (z-score) (Gal(b1-2)Gal): 2.67
glycan array binding signal (z-score) (Gal(b1-3)Gal): -0.517
glycan array binding signal (z-score) (Gal(b1-3)Gal(b1-4)GlcNAc): 0.14
glycan array binding signal (z-score) (Gal(b1-3)GalNAc): -0.028
glycan array binding signal (z-score) [11]: -0.368
glycan array binding signal (z-score) [12]: -0.331
glycan array binding signal (z-score) (Gal(b1-3)GalNAc(b1-3)Gal): -0.645
glycan array binding signal (z-score) [13]: -0.575
glycan array binding signal (z-score) [14]: -0.506
glycan array binding signal (z-score) [15]: -0.557
glycan array binding signal (z-score) (Gal(b1-3)GlcNAc): -0.396
glycan array binding signal (z-score) [16]: -0.525
glycan array binding signal (z-score) [17]: -0.468
glycan array binding signal (z-score) (Gal(b1-3)GlcNAc(b1-2)Man): -0.473
glycan array binding signal (z-score) [18]: 2.33
glycan array binding signal (z-score) [19]: -0.592
glycan array binding signal (z-score) [20]: -0.473
glycan array binding signal (z-score) [21]: 0.62
glycan array binding signal (z-score) [22]: -0.605
glycan array binding signal (z-score) [23]: -0.508
glycan array binding signal (z-score) [24]: -0.462
glycan array binding signal (z-score) [25]: -0.513
glycan array binding signal (z-score) [26]: 0.467
glycan array binding signal (z-score) [27]: -0.067
glycan array binding signal (z-score) [28]: -0.659
glycan array binding signal (z-score) [29]: -0.574
glycan array binding signal (z-score) [30]: -0.626
glycan array binding signal (z-score) [31]: 0.072
glycan array binding signal (z-score) [32]: -0.617
glycan array binding signal (z-score) [33]: -0.42
